Sequences with one replicate were seen in a single cluster, so their values are uncertain.
The sequences below were run on ATP (assay: switch fluorescence ratio, 500 uM ATP over buffer (Cy3 cluster intensity, sum of 5 cycles each) (fold (ratio)); higher = stronger signal-on switching upon ATP binding; sequences stand for … in TCGTCGGCAGCGTCAGATGTGTATAAGAGACAGTTTTTTTTTTTTTTTTTTTTTTTTT…TC). Conditions: aptamer strand: ATP DNA aptamer (quencher-CACCTGGGGGAGTATTGCGGAGGAAGG + anchor), 100 nM annealed; ATP concentration: 500 uM; one replicate.
Outline: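 Exposure to 500 uM ATP lasted 15 min at 22 °C before imaging, and a selection-buffer image was taken beforehand, for Cy3-labelled switching-strand clusters on a modified Illumina MiSeq flow-cell annealed to 100 nM quencher-labelled ATP aptamer. Five buffer/ATP cycles were run with NaOH stripping and re-annealing between them. The fluorescence ratio per cluster is summed target-cycle over summed buffer-cycle Cy3 intensity, averaged per switch-domain sequence. Clusters outside 100-1000 RFU were excluded.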

| Sequence | switch fluorescence ratio |
| --- | --- |
| CTTGTTGGAA | 0.973 |
| GAAAGCTATA | 1.07 |
| AAAATTACTG | 1.29 |
| TCGGGTGGA | 0.98 |
| TACCCTATTT | 1.04 |
| CATGAAGGGA | 1.04 |
| TGTGACTCGC | 1.04 |
| GTGAGACGA | 1 |
| TATGGAGAGA | 0.992 |
| GCTTACGCCG | 0.999 |
| AGTATCGATC | 0.976 |
| TTCCAAATAT | 1.01 |
| CGAGAAGCCT | 1.06 |
| TCTCAATCG | 0.992 |
| ATCCTGGGAG | 0.984 |
| CCTGCAGCTA | 5 |
| TAAGTTGCTA | 1 |
| AGAGTGCGCT | 1 |
| CGAGTCTTGG | 0.986 |
| TCTATTCTT | 0.971 |
| GAGTATAGAC | 1.04 |
| TTATCGCTAT | 1.06 |
| ATTACCGA | 1.03 |

| Sequence | switch fluorescence ratio |
| --- | --- |
| TCCGGATATG | 0.993 |
| TGCGTAACCT | 1.75 |
| CTCCTAGAGG | 1.02 |
| ACAGTATTTC | 1.12 |
| GACGGCTCTG | 0.994 |
| TGAACGGGT | 1.04 |
| GTCACAGATA | 0.968 |
| TAAAGTGTAG | 1.12 |
| TTAGGATACC | 1.02 |
| ATGCACGCAT | 1.01 |
| CTTGGGGTGG | 0.981 |
| ACCTGGTGAC | 1.32 |
| ATTCGCTGCG | 1.04 |
| GCTCGTTGAA | 1.01 |
| TAGGGCTACT | 1.01 |
| TAGAGGAGGG | 0.997 |
| TTCATCGCTT | 1.09 |
| TTCTTTACCG | 1.04 |
| ATGATGCTTT | 1.01 |
| GTTTTCATTA | 0.987 |
| TTGGCTTTGC | 0.997 |
| GCCATTGCAG | 0.988 |
| GTTTTAGGC | 0.911 |

| Sequence | switch fluorescence ratio |
| --- | --- |
| TTGATAGCCA | 0.989 |
| TTTCCAACGG | 1.58 |
| AGAGAAAGGA | 1.04 |
| CAGCCCTTTC | 1.27 |
| GTATGTATCC | 0.996 |
| TCATTAGGTA | 1 |
| GGACATGAAC | 1.06 |
| ACTATTCTGA | 0.959 |
| GATACAACGG | 1.25 |
| CTCGATTGCG | 0.987 |
| TAGCGGATTC | 1.06 |
| AAGTCGTTGA | 1.01 |
| AGGTGGCAA | 1.06 |
| ATTGGGGCTA | 0.966 |
| AACAACATTA | 1.08 |
| CGGGCAAGTT | 0.972 |
| CTCACTTATC | 1.02 |
| TGCAAGTG | 0.963 |
| TGTTTCGGT | 1 |
| GTCACCATGG | 1.06 |
| GTTTGGTTTC | 1 |
| TCATCCAGAG | 1.04 |
| TCCATGTAGT | 1.05 |

| Sequence | switch fluorescence ratio |
| --- | --- |
| TAATCTGGCC | 0.912 |
| TGTGAAATAC | 1.44 |
| CTTGGACTCA | 1.02 |
| AATTCCGCTA | 2.98 |
| ATTTTCCACA | 1.05 |
| GAGAGAGAAA | 1 |
| ATAGTGTTTC | 0.979 |
| CCTGGTGAGA | 1.35 |
| ATGGGTTTTA | 1.03 |
| GCAGGCCTGT | 0.977 |
| CATATAGTGT | 0.999 |
| TACAGTGGTT | 1.03 |
| GCGTAATATA | 1.14 |
| CGGCCCCGTA | 1.07 |
| GACGTTTGG | 0.982 |
| AAGATGAGTT | 0.971 |
| CTCGGCATCC | 4.09 |
| AGCCTAAATT | 0.986 |
| TAAATATCCC | 0.994 |
| TTATGGTGTT | 0.989 |
| CGGCTGCTAG | 0.987 |
| TTCCATAGTA | 0.988 |
| TCAATAGCGA | 1.18 |

| Sequence | switch fluorescence ratio |
| --- | --- |
| AAACCTTGGC | 1.27 |
| TTAGCGGAAT | 1 |
| GAACGTGGAA | 0.985 |
| GTAAACATAT | 0.976 |
| AGGTTTCCGG | 0.965 |
| GTTTCCGGGT | 1.07 |
| AGAGGATCCT | 1.04 |
| AAGAGCCCGG | 1.04 |
| TAGGGAGTAA | 1.02 |
| CACAGGATCC | 1.02 |
| AGTATGTAGA | 1.02 |
| GGACGTGGTT | 0.965 |
| TTATAGTAAA | 1 |
| TTACTATTGT | 1.01 |
| CAGGACAAAC | 1.1 |
| GACTCAAGT | 1.02 |
| TACTGTTGTT | 0.976 |
| GTAGCACCAG | 1.03 |
| TAGCAAAATC | 1.36 |
| TCGTGACGA | 1.05 |
| CGACGTTTAG | 1.01 |
| TTAATTAAGC | 1.02 |
| TTTGAGA | 0.993 |

| Sequence | switch fluorescence ratio |
| --- | --- |
| GTATATTGAG | 1.02 |
| TGCTAGATGG | 0.972 |
| AGTCCGGAAA | 1.2 |
| TATTTTGGA | 0.989 |
| CGCTTATAGC | 1.11 |
| CGACACTTGG | 1 |
| GCTTTCGGAT | 1.03 |
| TTTCGCTCGG | 1 |
| CGGGCGAGAG | 1.01 |
| ATATTCTATA | 0.99 |
| TGTGGCATTG | 1.02 |
| GAGGGGCAAC | 1.03 |
| CCTCTAGACC | 2.46 |
| GGAAAATCGG | 0.967 |
| GGGGCGTCGA | 1.01 |
| GGCTTAGTAT | 0.957 |
| CCCGGTAAAA | 0.979 |
| AATGACTATC | 0.998 |
| GCGATTTTGC | 1.07 |
| ATGGCCTGTT | 1.01 |
| AATGCAGGCA | 1.02 |
| TGTTGGGAAG | 1.47 |
| CGGAATCGGG | 1.04 |

| Sequence | switch fluorescence ratio |
| --- | --- |
| TAGTTCATAC | 1.05 |
| TCGCACATAG | 6.06 |
| ATACCTGTAT | 1.06 |
| AAGTTGGACT | 1.02 |
| CGTTGGGCAT | 1.04 |
| GAGGTTGAAT | 0.998 |
| CTCAAGTACA | 1.3 |
| AGAAACTTCG | 1.01 |
| AATCAACGTG | 1.05 |
| ACCGCCACTT | 1.3 |
| AAGAATATTG | 1.03 |
| ATAAAAGGAC | 1.03 |
| CAGCGCTTTT | 1.01 |
| GGTGAGGGAA | 0.995 |
| TTAACTGGAT | 0.965 |
| ATCACGTATT | 1.21 |
| GCTGCTTGT | 1.06 |
| GTTGTTAGAC | 0.962 |
| CTTTATAGCG | 1.01 |

Reference: the supplement of paper PMC10126150
